Whole data set: some 33,000 sequences, median “E-score (-0.5 to 0.5)” near -0.041, cut for the highest 2% near 0.37. The list shows a part of the results.
Biological target: T1, Ecm22 (UniProt Q05958)
T1 sequence: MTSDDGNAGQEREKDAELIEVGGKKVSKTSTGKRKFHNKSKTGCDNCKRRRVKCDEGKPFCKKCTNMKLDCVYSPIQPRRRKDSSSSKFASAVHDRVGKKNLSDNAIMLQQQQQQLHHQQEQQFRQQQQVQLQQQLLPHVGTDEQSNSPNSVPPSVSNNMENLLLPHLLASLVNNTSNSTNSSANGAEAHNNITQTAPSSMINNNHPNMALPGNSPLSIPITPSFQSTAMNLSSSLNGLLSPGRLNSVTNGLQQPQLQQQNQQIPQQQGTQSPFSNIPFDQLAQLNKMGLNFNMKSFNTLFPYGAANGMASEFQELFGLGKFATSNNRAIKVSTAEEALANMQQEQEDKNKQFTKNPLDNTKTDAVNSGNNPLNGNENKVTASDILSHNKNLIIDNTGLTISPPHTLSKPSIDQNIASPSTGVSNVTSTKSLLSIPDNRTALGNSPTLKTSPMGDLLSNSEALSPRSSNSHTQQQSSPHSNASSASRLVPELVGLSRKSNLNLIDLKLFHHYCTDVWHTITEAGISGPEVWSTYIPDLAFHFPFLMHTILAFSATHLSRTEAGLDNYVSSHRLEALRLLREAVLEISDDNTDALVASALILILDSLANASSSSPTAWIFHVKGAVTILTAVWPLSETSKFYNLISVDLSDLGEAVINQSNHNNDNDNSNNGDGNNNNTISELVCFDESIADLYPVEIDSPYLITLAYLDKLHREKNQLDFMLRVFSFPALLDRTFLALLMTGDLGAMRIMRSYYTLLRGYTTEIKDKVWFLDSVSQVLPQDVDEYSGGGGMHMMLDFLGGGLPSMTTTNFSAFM
Experiment: PBM E-score (8-mer binding enrichment) (E-score (-0.5 to 0.5)); higher = stronger / more preferred TF binding; most listed sequences are background and not binding sites
Settings: protein concentration: 200 nM; construct: GST-full length
Method in brief: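 Bound GST-tagged yeast transcription factors, applied at about 100-200 nM to double-stranded universal all-10-mer Agilent arrays, were detected with fluorescent anti-GST. Scans were normalised with masliner. A modified Wilcoxon-Mann-Whitney statistic, the E-score, was assigned to each ungapped eight-base word pooled with its reverse complement by the Universal PBM Analysis Suite.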

Sequence	PBM E-score
ATAGTGTA	-0.0539
GGGATACC	-0.115
CACAAGAA	-0.0424
AAGCAAAC	0.204
AGTTTTCA	-0.0527
AAGCTTCT	0.0794
AGGATGGG	0.0518
ACGCGAGT	0.241
GGTCGACA	0.0742
CATAGCAG	-0.207
AGGTCTAG	-0.112
AGATATAG	0.0596
GATACCAC	-0.0172
ACGAGCTC	0.39
TGTCTGAA	-0.0279
ATCTTATA	0.128
CCCAGATA	-0.266
ATTGACCG	0.089
CAACGCGG	0.0446
ACAGCCGC	-0.132
ACCATTCA	-0.291
GGTGCGAA	0.275
TCGACACA	0.0861
ATAGAGTA	0.0185
GAACACGA	0.156

Sequence	PBM E-score
ACAAGCCG	-0.0164
AAGATAGT	0.0345
GGTTCAAC	0.143
GGGGCGTA	0.0407
CACTACCG	-0.224
CCGGCTGA	-0.0516
ACTTTGTC	-0.00755
CCAGCTCA	-0.144
CCAAGCCA	-0.169
TCGTACAA	0.49
AAGAAAAG	-0.233
CACTACTG	-0.283
GAAGGCCA	-0.246
AATAACAA	-0.0956
CTGCCCCA	-0.065
ATCGGGTG	0.0998
ATACACGC	0.0228
GAAACTAA	-0.0632
GCTATGAA	-0.0335
AACACAAT	-0.00044
GTCCAGTA	-0.113
ATTGTACG	0.431
AATGTGCT	0.00418
TCCGGTCA	-0.0673
CTGGCATC	-0.132

Sequence	PBM E-score
ACGCTTTC	-0.159
AGGGCCTA	-0.26
AAGGTATC	-0.125
CTATGGTC	-0.017
CTGGCGTA	0.0704
AATCCGCA	-0.0374
ACCCCGAT	-0.185
AGCTTTCA	-0.154
AATGGCCA	-0.223
CAAACAGC	-0.0683
AGCGTCGA	0.0362
AAGTGCTA	-0.145
GGTTGGAC	-0.241
CGACGGTC	0.193
AAGGGAGA	-0.212
CAAACAAA	0.0404
TGGCTACA	0.134
CACCTTGC	-0.0519
GCTGCATA	-0.114
CTCATCAC	-0.183
GATCATGA	0.128
AAGGGCCA	-0.444
CGCGCAAA	0.188
TCCACTAA	-0.0495
ACTCCTAA	-0.103

Sequence	PBM E-score
CTGGGTAA	-0.00727
CGCCCGAG	-0.0794
ATAACATA	0.157
ACTGCGTA	0.132
TCCATGGA	-0.0517
GAGATAGA	0.00065
GGCCTCTA	-0.138
TAGTGTAA	-0.0408
ATCAAGTG	-0.307
AAATGCAC	-0.0425
TATGCCCA	-0.146
CCATATTA	0.0759
AGGAGTTC	-0.0909
AACTTCAG	-0.0831
GGTTGAAA	-0.188
AAGTGTAC	0.095
CGCAAACC	0.227
GTGATTGA	-0.0833
CCCATGTA	-0.213
CGCGAGAC	0.27
AGGCATGC	-0.155
AAACCCGA	0.279
AAGGAAGA	-0.159
ACCTGCTG	-0.238
ACTCGACT	-0.14

Sequence	PBM E-score
GACTTCTA	-0.159
AGGCAGAC	-0.205
CCTGAACA	-0.102
GAGCCCAC	-0.0418
ACGGTGGA	0.123
AGTGAAAT	-0.184
CCTAAGTC	-0.235
CCTCTAAG	-0.294
CTGGCCTC	-0.0267
GGGCGTAA	-0.0459
AGCTTATA	-0.0588
ACTTCACC	0.0335
CCCTGAGC	-0.127
ACCATCAG	-0.095
CATTGGAA	-0.122
CGGGGGAC	-0.248
AATCTCCA	-0.162
CAAAGTAG	-0.0816
ACTATAGG	-0.122
CAAGGTAC	0.163
CATGTCTC	-0.0657
CGATAAGA	0.00213
ATAATTGC	-0.0903
CAACGTAA	0.13
CGTCTGAG	0.106

Sequence	PBM E-score
GGTGGCAA	-0.192
AGAGTTGG	-0.25
ATACGTAC	0.342
AAGAAGTG	-0.0385
ATTACAGA	0.159
CGTTCATC	0.354
CTATATTA	0.0735
CCCATAGC	-0.254
ATGACCCA	-0.168
CCAAATTC	-0.0263
AGGGGACA	-0.219
ATTGTAGG	0.00729
CCCTGGAG	-0.128
CCCCCGTA	0.26
GTCGGGAA	0.231
CGGGCAAG	-0.131
TACTTCAA	-0.0609
CTACTGAA	-0.155
CCTACCTC	-0.0998
GCGTTGCA	-0.066
AAAGCCTG	-0.228
TAGGCCTA	-0.1
GCCTCGAA	0.0731
ATAGGGAC	-0.18
CTGAATTC	-0.173

Sequence	PBM E-score
CCTAGAAG	-0.187
ACTCTGGA	0.0205
AGGCTTCA	-0.158
ATGTTCCA	-0.0643
ACTGGAGG	-0.275
GCCGCGCC	-0.236
GCTACCAA	-0.0916
AGATAGTG	0.0744
CCAGTCTC	-0.197
GCCAAGCC	-0.146
CCACCACG	0.0215
AACCTCAC	-0.0244
CTAAACCA	-0.126
ATATCATC	-0.154
ACGGATTA	0.122
AATGTGAA	-0.0324
TCGTACCA	0.488
ACTGCGCT	-0.0766
TCGCAAAA	0.296
GGCGATAC	0.0112
TCGCTCAA	0.289
AATGATGA	-0.117
CTGGGATA	-0.292
AGAATTTA	-0.211
TCGCGACA	0.127

Sequence	PBM E-score
CTTACCGA	0.21
CCAGGGGA	-0.169
AAGCATGA	-0.043
ATTGAGGA	-0.0867
AAGGGTGG	-0.0958
AGCCACCA	-0.291
ATATATAG	0.165
TCTAATAA	0.0842
ACGTATGC	0.114
ATTCATGC	0.102
GTTCGCTA	0.244
AGCAACGA	0.407
ACCCTGAA	-0.127
GATACGCA	0.231
GAGCAGGA	0.177
GGGGCACA	-0.216
GGCAAGAA	-0.0811
ACACAGTG	-0.0213
TAAGAACA	0.0615
GTTCTTTA	0.12
GATCAACC	0.00058
AATGGGCA	-0.0348
CAACTATC	0.145
GCCACAGA	-0.109
CGAAACCG	0.131

Sequence	PBM E-score
AAAAATGA	-0.0643
CAACAAGG	-0.0608
CTGTGCAC	-0.0356
ATAAGGAG	-0.0163
CTCCTGTC	-0.128
GCCGTTAC	0.069
CTCCATCA	-0.137
GGTGGCAC	-0.212
CCACCCAA	-0.226
AATAACGG	0.211
GACGATGC	-0.0114
TCGCGAGA	0.312
AGCTACGG	0.112
ACGCGCCA	0.0203
AGTCAAGC	-0.127
CGATGGTA	0.0935
ATTTTTAA	0.0854
CAAAGGAC	-0.284
GCAACACC	-0.178
CAAGATTC	-0.248
ATATATGC	0.133
AGATAGAC	0.0861
GAATCAGA	-0.0525
CTGCTTGA	-0.119
ACGCTTGG	-0.0179

Sequence	PBM E-score
AGCTAACT	-0.173
ACAGTATC	-0.0515
ATGAATAA	-0.115
GCTATGGA	-0.173
AGGGAACT	-0.00739
GACGGACC	0.00303
CGCGCATC	0.0785
ATCTGGGA	-0.227
CAAGGGCG	-0.197
ACGCAGAT	0.194
CTCCTTCC	-0.152
ACAAAGCC	-0.0199
AATGATTG	-0.0664
AGGTTCGA	0.027
TAAACACA	0.0299
AGGATCCG	-0.0606
ATGTCAAC	0.1
GGGTGACA	-0.2
AGTCGGAA	0.0822
TCCAGCAA	-0.0116
AGCAGAAT	-0.0881
CGGTTTAG	0.0175
AGGTTATC	-0.0786
CCGTCCAC	-0.041
TCCTGAAA	-0.00548

Sequence	PBM E-score
AATGGTGG	-0.241
ACTGTCGG	-0.12
AATGAAAA	-0.0312
ATCACGTC	-0.0576
AGACTGTA	0.106
GTGGCGCA	0.00871
CTACGATA	0.311
GCGTCGGA	0.22
CCTATTCC	-0.188
GCTCTAAA	-0.144
ATAAAAGA	0.153
AGATCGGG	-0.209
CTAGTCTA	0.0337
TCCCTGAA	-0.105
AAATTCGT	0.334
AACTCTAT	-0.151
ACTACTAA	-0.101
CCCGGTAA	-0.0616
AATCTTTA	-0.0885
ACCAGTTG	-0.0649
AACCAGGA	-0.17
CCTAGACC	-0.104
CTACCATA	-0.0505
GTGACCAC	-0.128
TAGCAAAA	-0.0683

Sequence	PBM E-score
CGTGTAAA	0.185
AAAAGCTC	-0.0238
CCTTGGTC	-0.0914
CTATAGAG	-0.372
CGCCACGC	-0.183
ACACGCAT	-0.195
CACCAAAC	0.139
ATGCGCTG	-0.127
ATTACTTG	-0.0442
CCCGTGGA	-0.198
CCCCCCAA	-0.278
GAGGAACA	-0.0447
CCGCCGTA	0.344
GCGCCTAC	-0.03
CTGTGACC	-0.185
CTGGATCC	0.0538
AGAAGGCG	-0.0893
GGGTGGGA	-0.0941
AATACGGT	0.21
GAACTCTC	-0.116
GATCCTTA	-0.0215
TATCTCCA	-0.135
CTATACAC	-0.176
AGAGGACG	-0.00996
CTACTTGC	-0.149

Sequence	PBM E-score
CCTGCCAA	-0.151
AACTAGCT	0.064
ATGCGTTC	0.21
ATCGGAGA	-0.154
GAACGGCC	0.31
AGTGCTAG	-0.166
ACTACCCC	-0.283
ACGATACA	0.31
GTGAACAA	0.198
AATCTGTC	-0.0394
ACGCTTGC	-0.0756
AAAGACGC	-0.118
ACCCCGAA	-0.0346
AAGTCCTA	-0.0248
AAACAGGG	-0.123
CAGCGGCG	0.0595
CCTATCAA	-0.0295
TACTTAAA	-0.0916
CGCAGGAA	-0.0152
TGTAAAAA	-0.0406
AACGCTGA	0.0665
CAGGATGA	-0.0317
CGATTGCC	0.157
CGCCGCAA	0.094
AGTGCACG	0.112

Sequence	PBM E-score
ATCGCGTC	0.151
AGGTTTTA	-0.127
CAATATGC	0.0461
CGCTCCTA	0.0799
ACTTGACT	-0.314
CCTAGAAA	-0.153
AGCAAAAG	-0.00648
CTCGATAC	0.168
AAGTGTAT	-0.0799
GCACCGTA	0.371
TGAGTCCA	-0.1
GAAGCCTC	-0.0986
AATGATGT	-0.037
AACTACAA	0.019
AGTTCCGG	0.0156
GCCTTACC	-0.138
GGTGCGGA	-0.0515
ACTCAGAG	-0.193
AGACTCAT	-0.0543
